This note sets out measurements from publication PMC3433420.

For part of its entries the source gives two or more results. Only these are listed. There may be further records. For part of these data: Results that share an entry seem to repeat one measurement (runs, samples, wells or individuals). For part of these data: The records of an entry read as repeated measurements on other runs, samples or individuals; a mean can stand among them.

Among the targets are ITK SH2 domain (human) (UniProt Q08881); LCK SH2 domain (human) (UniProt P06239); BLK SH2 domain (human) (UniProt P51451); YES1 SH2 domain (human) (UniProt P07947); TEC SH2 domain (human) (UniProt P42680); TNS3 SH2 domain (human) (UniProt Q68CZ2); SRC SH2 domain (human) (UniProt P12931); ABL2 SH2 domain (human) (UniProt P42684).
Assay in all cases: peptide or protein array; SH2/PTB proteins spotted on aldehyde slides, rhodamine peptide titrated in buffer B (20 mM HEPES, 100 mM KCl, 0.1% Tween-20, 5 mM DTT, pH 7.8), 1 h at room temperature; replicate assays
For test [1], the target named is PIK3R3 tandem SH2 domains (human).
In test [2] the target is SH2D1B SH2 domain (human) (UniProt O14796).
Test [3] deals with ZAP70 C-terminal SH2 domain (human) (UniProt P43403).
Test [4] concerns the target SH3BP2 SH2 domain (human) (UniProt P78314).
Test [5] has as its target SH2D1A SH2 domain (human) (UniProt O60880).
The target in test [6] is PLCG2 tandem SH2 domains (human).

Sequence of UniProt Q08881 (Q08881 239-338): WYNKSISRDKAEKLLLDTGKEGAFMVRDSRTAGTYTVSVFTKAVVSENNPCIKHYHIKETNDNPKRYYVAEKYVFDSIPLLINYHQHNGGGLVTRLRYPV
Sequence of UniProt O60880 (O60880 6-104): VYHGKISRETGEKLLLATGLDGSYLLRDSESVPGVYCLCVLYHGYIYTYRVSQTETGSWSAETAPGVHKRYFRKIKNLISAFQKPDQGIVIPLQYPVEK
Sequence of UniProt P78314 (P78314 457-555): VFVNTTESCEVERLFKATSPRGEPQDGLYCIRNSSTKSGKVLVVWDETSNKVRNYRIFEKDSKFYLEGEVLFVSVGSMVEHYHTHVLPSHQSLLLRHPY
Sequence of UniProt P42680 (P42680 247-345): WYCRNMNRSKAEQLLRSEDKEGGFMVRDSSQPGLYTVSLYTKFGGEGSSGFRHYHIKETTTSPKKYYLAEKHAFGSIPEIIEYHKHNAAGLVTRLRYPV
Sequence of UniProt P07947 (P07947 158-255): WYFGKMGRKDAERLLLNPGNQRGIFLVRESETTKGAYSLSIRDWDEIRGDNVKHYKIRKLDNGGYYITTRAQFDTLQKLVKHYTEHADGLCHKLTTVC
Sequence of UniProt P51451 (P51451 124-220): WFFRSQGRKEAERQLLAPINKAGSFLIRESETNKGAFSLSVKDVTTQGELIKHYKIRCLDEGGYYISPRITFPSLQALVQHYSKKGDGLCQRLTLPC
Sequence of UniProt O14796 (O14796 5-101): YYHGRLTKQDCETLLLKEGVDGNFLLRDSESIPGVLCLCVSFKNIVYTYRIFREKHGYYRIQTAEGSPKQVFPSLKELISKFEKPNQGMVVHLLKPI
Sequence of UniProt P42684 (P42684 173-263): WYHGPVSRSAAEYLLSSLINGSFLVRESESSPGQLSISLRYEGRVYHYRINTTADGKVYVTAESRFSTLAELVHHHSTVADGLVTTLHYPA
Sequence of UniProt Q68CZ2 (Q68CZ2 1172-1282): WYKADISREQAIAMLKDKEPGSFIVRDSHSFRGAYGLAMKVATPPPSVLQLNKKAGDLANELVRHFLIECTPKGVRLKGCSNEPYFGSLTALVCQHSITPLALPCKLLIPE
Sequence of UniProt P06239 (P06239 127-224): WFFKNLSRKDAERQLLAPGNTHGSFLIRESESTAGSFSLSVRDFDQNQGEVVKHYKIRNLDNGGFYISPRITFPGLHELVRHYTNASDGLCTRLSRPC
Sequence of UniProt P43403 (P43403 whole entry, the tested form may be a part): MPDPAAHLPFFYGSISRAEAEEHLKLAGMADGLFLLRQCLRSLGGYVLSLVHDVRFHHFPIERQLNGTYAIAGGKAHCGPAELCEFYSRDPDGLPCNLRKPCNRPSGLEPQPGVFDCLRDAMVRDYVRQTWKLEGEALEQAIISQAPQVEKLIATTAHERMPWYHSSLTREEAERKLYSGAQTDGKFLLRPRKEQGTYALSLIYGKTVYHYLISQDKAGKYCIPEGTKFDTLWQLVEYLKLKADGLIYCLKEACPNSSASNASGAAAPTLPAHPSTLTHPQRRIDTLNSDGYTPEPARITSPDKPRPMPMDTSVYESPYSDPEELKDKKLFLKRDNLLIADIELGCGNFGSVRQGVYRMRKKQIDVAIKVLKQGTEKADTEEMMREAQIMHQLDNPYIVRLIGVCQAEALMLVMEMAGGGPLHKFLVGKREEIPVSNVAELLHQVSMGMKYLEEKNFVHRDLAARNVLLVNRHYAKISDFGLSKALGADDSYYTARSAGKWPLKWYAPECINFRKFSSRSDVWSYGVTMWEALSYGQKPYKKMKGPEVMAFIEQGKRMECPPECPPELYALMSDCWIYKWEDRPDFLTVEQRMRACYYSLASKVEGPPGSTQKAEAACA

In the case of “ErbB2 pY735 phosphopeptide, rhodamine-labelled, for protein microarrays”, the Kd is 0.805 nM and 1.01 µM [lines of one column] in test [1]; 1.17 µM and 44.8 nM [lines of one column] in [2]; 2.03 µM and 29.4 µM [lines of one column] with ITK SH2 domain (human); 812 nM and 20 µM [lines of one column] in [3]; 731 nM and 11.9 µM [lines of one column] in the test with LCK SH2 domain (human).
Regarding “ErbB3 pY789 phosphopeptide, rhodamine-labelled, for protein microarrays”, the Kd was 380 nM, 6.77 µM, 64.5 nM [lines of one column] in test [1]; 1.83 µM, 1.6 µM, 70 nM [lines of one column] in [2]; 2.25 µM, 1.3 µM, 30 nM [lines of one column] with BLK SH2 domain (human); 588 nM, 50 nM, 2.46 µM [lines of one column] in test [4]; 220 nM, 2.68 µM, 678 nM [lines of one column] in test [5]; 801 nM, 388 nM, 80 nM [lines of one column] in test [6]. For the same substance, the dissociation constant Kd with YES1 SH2 domain (human) is 1.44 µM, 518 nM, 60 nM [lines of one column].
For the substance “ErbB4 pY733 phosphopeptide (18-mer), rhodamine-labelled, for protein microarrays”, the Kd in the test with ITK SH2 domain (human) was 9.63 µM, 1.61 µM, 814 nM [lines of one column]; with BLK SH2 domain (human), 1.75 µM, 7.18 µM, 401 nM [lines of one column]; with TEC SH2 domain (human), 23 µM, 2.14 µM, 1.62 µM [lines of one column]; in test [4] it was 50.1 µM, 12.8 µM, 802 nM [lines of one column]; in test [6] it was 801 nM, 10.3 µM, 2.26 µM [lines of one column]; in the test with TNS3 SH2 domain (human), 54.1 µM and 794 nM [lines of one column]. The Kd with SRC SH2 domain (human) is 12.2 µM, 4.2 µM, 1.21 µM [lines of one column].
In the case of “ErbB4 pY1202 phosphopeptide (18-mer), rhodamine-labelled, for protein microarrays”, the dissociation constant (Kd) is 2.29 µM, 2.39 µM, 447 nM, 7.84 µM [lines of one column] with BLK SH2 domain (human); 1.61 µM, 15.9 µM, 495 nM, 2.06 µM [lines of one column] in test [4]; 1.61 µM, 417 nM, 350 nM, 1.44 µM [lines of one column] with YES1 SH2 domain (human).
As to “ErbB4 pY1301 phosphopeptide (18-mer), rhodamine-labelled, for protein microarrays”, the Kd with ABL2 SH2 domain (human) was 1.03 µM and 0.68 nM [lines of one column]; in test [6], 815 nM and 8.37 µM [lines of one column].
